Measured values taken from publication PMC6919601, “Identification of Plasmodium dipeptidyl aminopeptidase allosteric inhibitors by high throughput screening” (PLoS ONE, 2019).
The campaign covered roughly 110,000 compounds. About 230 (0.21%) showed an effect of 50% or more. The list shows a part of the results.

biological target: DPAP1 (Plasmodium falciparum, UniProt Q8IIJ9); assay: primary screen, percent inhibition; read by cleavage of a fluorogenic dipeptide substrate; higher = more effect of the substance; set-up: species or system P. falciparum D10 trophozoite lysates; single well
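Also: 30 min substrate incubation versus DMSO and 10 µM JCP410 controls.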

DPAP1, sequence (Q8IIJ9 whole entry, looked up): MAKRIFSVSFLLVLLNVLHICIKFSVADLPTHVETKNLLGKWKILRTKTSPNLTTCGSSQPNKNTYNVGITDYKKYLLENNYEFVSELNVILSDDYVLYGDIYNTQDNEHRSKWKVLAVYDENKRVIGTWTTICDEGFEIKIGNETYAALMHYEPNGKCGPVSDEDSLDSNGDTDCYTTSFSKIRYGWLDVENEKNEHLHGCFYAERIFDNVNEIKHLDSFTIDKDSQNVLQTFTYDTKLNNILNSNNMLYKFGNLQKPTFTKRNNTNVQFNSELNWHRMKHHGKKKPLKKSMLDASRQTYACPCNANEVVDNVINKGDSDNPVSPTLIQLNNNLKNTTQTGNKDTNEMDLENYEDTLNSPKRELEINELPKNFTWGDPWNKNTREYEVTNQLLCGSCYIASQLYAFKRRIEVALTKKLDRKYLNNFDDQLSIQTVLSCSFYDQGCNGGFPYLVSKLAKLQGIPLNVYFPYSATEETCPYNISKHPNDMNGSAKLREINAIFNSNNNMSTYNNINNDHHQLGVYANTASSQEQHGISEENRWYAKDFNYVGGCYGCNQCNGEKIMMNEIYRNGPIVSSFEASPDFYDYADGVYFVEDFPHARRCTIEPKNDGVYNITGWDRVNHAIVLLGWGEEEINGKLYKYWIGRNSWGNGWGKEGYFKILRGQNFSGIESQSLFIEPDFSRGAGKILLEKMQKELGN

Compound	% Inhibition @ 10 uM [%]
Brc1ccc(-c2ncc(-c3ccccc3)cn2)cc1	-0.351
CCOC(=O)N1CCN(C(=O)CSc2nnc(-c3ccc(F)cc3)o2)CC1	2.42
CCCNCc1c(C(=O)O)n(Cc2ccccc2C)c2cc(OC)ccc12	-8.18
NC(=O)c1oc2ccccc2c1NC(=O)c1ccc(Cl)cc1	1.62
Cc1ccc(Cc2nnc(C(=O)NC(C)c3ccccc3)o2)cc1 (stereo not drawn)	-2.23
COc1ccc(-c2ccccc2)cc1NC1C2CC3CC(C2)CC1C3 (stereo not drawn)	3.18
Cc1cc(C)cc(NC(=O)Cc2cccs2)c1	4.03
O=C(NCCO)c1ccc(-c2nnc(N3CCOCC3)c3ccccc23)cc1	26.7
CCOC(=O)/C(C#N)=C\c1cccc([N+](=O)[O-])c1	4.3
C=CCOC(=O)C1=C(C)NC(=O)NC1c1ccc(Cl)c(Cl)c1 (stereo not drawn)	-5.2
CCN(CC)c1nc2c(S(=O)(=O)c3ccc(C)c(C)c3)nnn2c2ccsc12	4.06
Cc1cccc(C(=O)Nc2ccccc2)c1	-2.51
Cc1cc(C)cc(NS(=O)(=O)c2ccc(NC(=O)COc3ccccc3C)cc2)c1	-4.7
COc1cc(-n2nnnc2SCC(=O)NCc2ccccc2)c(OC)cc1Cl	0.9
O=C1c2ccccc2C(=O)N1CC1c2ccccc2CCN1C(=O)CN1CCOCC1 (stereo not drawn)	5.98
Cc1cc(C)cc(NC(=O)COc2ccccc2)c1	1.35
O=C(c1ccc(Cl)cc1Cl)N1CCN(Cc2ccc3c(c2)OCO3)CC1	-8.28
Cc1ccc(CNC(=O)c2noc3c2COc2ccccc2-3)cc1	72.8
Cc1cc(C)nc(NC(=O)COc2ccc(C(C)C)cc2)n1	4.18
Cc1ccccc1NC(=O)C1CC=CCC1C(=O)NCc1ccccc1 (stereo not drawn)	-5.47
CCOC(=O)c1cc(O)c2c(n1)c(C)cc1c(C)c(C)[nH]c12	2.73
COc1ccccc1C(=O)Nc1cccc(-c2nc3cc(C)ccc3o2)c1C	1.41
O=C(c1cc2ccccc2oc1=O)N(Cc1cccs1)C1CCS(=O)(=O)C1 (stereo not drawn)	1.89
Cc1cc(CO)sc1C	-0.999
Cc1ccc(-c2cnnc(-c3ccc(Cl)cc3)n2)cc1	-4.75
COCCNC(=O)c1[nH]c2cc(OC)ccc2c1Sc1ccc(Cl)cc1	-1.97

Compound	% Inhibition @ 10 uM [%]
O=C(O)c1ccc(NC(=O)c2ccc(Cl)cc2Cl)cc1	2.22
Cc1c(Cl)cccc1-n1ncc(C(=O)N2CCCC2)c1C1CCN(C(=O)OC(C)(C)C)CC1	-0.707
CCN(c1ccccc1)S(=O)(=O)c1ccc(NC(=O)c2ccc(OC)cc2)cc1	-3.72
Cc1nc2nc(-c3ccc(Cl)cc3Cl)nn2c(C)c1CCC(=O)NCCCOC(C)C	-0.72
Brc1ccccc1OCCCCCN1CCOCC1	4.6
c1ccc(-c2cn3c4ccccc4n(CCN4CCCCC4)c3n2)cc1	1.27
CSC1=NC2(C[C@H]2c2ccccc2)C(=O)N1C (stereo partly drawn)	-0.988
O=C(COc1ccc(Cl)cc1)NCc1nnc(SCC(=O)c2ccccc2)o1	-1.58
CCOC(=O)c1c(C)c(C(=O)NCCN2CCOCC2)c(C)n1C	4.88
CCOC(=O)c1c(NC(=O)c2cc(-c3ccccc3O)on2)sc(C)c1C	3.55
Cc1ccnc(SCCn2c(N3CCC(C(N)=O)CC3)nc3c2c(=O)n(C)c(=O)n3C)n1	2.41
Cc1ccc(OCCCN2CCCCC2)c(C)c1	-14.1
CCN1CCN(C/C=C/c2ccccc2OC)CC1	-2.34
COc1ccccc1N(CN1C(=O)CCC1=O)C(C)=O	2.92
Cc1cc(S(=O)(=O)N2CCN=C2c2ccccc2)ccc1F	-3.5
CN(CC(CC(=O)Nc1nncs1)c1ccccc1)S(=O)(=O)c1ccc(Br)cc1 (stereo not drawn)	-6.66
O=C(c1ccco1)N1CCN(S(=O)(=O)c2ccc(F)cc2)CC1	-5.03
COc1ccc(CCNC(=O)CN2C(=O)CSc3nc(C)cc(C)c32)cc1OC	-0.637
Oc1cccc2ccc(/C=C/c3cc4c(cc3Br)OCO4)nc12	4.18
Cc1ccc(CNC(=O)Cc2csc3ccccc23)o1	1.63
O=C(O)Cn1c2ccccc2c2nnc(SCc3ccccc3F)nc21	2.18
CCCCN(CCCn1cnc2c3ccc(OC)cc3nc-2c1O)Cc1ccccc1	-0.0235
Cc1ccc(NC(=O)CN(c2ccc(Cl)cc2)S(C)(=O)=O)cc1	-2.44
O=C(c1cc2ccc3cccnc3c2[nH]1)N1CCN(C2CCCCC2)CC1	10.6
COc1ccccc1NC(=O)C1=C(C)N=C2CC(C)(C)CC(O)=C2C1c1cccc(Cl)c1 (stereo not drawn)	-1.08
